Assay results taken from publication PMC4157715.
Results are given in words; binding and its absence hold for the method and conditions named. For some of these results: Binding seen in cells or lysates may run through a third protein. Some results given as binding are weak or reduced against the parent protein; the word gives no strength.

Amino acid sequences for entries named in this document (tags omitted).
UniProt Q10PZ9: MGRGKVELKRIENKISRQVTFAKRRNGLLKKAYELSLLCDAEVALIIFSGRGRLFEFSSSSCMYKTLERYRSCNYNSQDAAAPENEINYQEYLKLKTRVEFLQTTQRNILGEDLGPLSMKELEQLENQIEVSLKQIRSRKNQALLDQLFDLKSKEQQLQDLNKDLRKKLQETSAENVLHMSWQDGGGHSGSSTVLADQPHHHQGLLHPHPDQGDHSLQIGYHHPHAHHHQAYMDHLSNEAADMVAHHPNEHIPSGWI
UniProt Q40704: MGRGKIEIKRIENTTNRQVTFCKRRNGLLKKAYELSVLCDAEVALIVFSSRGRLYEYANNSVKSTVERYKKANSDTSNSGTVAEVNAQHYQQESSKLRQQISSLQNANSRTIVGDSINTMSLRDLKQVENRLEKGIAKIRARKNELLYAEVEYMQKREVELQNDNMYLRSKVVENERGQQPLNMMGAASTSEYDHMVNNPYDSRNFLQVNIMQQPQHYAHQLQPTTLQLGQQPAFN
UniProt Q0DEB8: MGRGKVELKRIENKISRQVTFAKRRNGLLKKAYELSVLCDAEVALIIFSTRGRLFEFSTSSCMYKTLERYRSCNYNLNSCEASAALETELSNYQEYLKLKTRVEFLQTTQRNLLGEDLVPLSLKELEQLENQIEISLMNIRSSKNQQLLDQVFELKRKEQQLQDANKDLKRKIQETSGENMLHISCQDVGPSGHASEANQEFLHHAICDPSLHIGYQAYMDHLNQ
UniProt Q6EU39: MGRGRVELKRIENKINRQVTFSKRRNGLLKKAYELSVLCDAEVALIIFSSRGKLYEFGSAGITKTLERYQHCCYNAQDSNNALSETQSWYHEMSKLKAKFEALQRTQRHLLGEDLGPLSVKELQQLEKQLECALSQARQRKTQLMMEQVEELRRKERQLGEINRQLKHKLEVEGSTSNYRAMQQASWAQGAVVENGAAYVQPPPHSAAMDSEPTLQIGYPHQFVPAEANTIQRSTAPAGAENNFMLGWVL
UniProt Q0J466: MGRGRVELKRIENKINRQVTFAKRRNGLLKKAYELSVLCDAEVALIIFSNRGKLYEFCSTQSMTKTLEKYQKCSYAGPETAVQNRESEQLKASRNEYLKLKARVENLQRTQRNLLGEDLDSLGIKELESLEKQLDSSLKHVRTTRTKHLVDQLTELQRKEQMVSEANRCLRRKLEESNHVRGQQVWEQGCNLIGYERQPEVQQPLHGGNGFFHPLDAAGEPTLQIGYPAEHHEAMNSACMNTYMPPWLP
UniProt Q9SAR1: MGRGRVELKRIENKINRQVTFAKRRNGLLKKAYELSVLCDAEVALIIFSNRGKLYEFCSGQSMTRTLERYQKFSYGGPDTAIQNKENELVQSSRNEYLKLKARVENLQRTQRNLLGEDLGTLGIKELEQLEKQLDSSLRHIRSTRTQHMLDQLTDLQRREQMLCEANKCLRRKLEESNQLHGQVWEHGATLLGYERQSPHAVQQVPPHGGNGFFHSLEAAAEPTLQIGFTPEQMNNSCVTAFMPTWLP
UniProt Q10CQ1: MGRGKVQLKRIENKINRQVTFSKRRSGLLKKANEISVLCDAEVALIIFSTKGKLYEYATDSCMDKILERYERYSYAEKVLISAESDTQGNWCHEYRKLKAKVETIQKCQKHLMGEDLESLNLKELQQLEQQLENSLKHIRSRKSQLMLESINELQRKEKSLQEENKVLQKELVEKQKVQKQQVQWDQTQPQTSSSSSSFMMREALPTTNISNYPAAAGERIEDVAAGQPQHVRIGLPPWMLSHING
UniProt Q7XUN2: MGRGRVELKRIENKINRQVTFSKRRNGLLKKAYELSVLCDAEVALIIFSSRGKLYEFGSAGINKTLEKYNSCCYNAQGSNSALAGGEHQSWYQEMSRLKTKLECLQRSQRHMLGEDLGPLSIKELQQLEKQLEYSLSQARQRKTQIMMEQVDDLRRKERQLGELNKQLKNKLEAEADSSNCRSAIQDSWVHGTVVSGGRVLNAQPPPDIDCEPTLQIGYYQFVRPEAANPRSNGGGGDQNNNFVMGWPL
UniProt Q0D4T4: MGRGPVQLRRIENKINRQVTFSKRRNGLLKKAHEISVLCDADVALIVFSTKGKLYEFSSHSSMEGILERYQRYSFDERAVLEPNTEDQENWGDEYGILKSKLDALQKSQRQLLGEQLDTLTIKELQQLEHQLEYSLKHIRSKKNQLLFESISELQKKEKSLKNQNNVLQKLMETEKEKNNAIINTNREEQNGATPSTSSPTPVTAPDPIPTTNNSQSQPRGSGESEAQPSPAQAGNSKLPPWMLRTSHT
UniProt Q9XJ66: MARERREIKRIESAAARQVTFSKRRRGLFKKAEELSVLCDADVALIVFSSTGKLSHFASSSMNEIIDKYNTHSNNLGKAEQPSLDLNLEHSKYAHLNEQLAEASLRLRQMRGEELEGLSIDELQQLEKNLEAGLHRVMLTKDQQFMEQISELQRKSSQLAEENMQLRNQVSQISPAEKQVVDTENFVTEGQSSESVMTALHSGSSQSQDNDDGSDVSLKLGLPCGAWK
UniProt Q84NC5: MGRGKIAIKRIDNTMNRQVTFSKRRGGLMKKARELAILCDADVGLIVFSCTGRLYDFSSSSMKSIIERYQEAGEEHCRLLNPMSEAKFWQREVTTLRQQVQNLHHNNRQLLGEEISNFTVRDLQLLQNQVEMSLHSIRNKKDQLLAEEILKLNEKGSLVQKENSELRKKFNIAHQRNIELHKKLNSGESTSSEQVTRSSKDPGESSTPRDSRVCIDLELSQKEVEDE
UniProt Q6Q9H6: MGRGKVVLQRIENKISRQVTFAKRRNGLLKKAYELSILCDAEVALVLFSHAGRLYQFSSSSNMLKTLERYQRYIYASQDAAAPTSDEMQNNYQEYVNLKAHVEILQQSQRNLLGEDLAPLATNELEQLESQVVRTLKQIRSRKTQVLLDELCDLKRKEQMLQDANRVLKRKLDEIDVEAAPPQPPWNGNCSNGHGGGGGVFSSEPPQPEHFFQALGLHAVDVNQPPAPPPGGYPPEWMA
UniProt Q69TG5: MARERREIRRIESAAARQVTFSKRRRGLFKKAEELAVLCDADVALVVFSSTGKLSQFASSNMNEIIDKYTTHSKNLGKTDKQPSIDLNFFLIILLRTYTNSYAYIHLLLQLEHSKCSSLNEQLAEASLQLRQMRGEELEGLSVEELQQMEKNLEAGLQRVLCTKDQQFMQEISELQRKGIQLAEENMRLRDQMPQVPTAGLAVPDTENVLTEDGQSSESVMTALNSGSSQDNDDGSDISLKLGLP
UniProt P0C5B2: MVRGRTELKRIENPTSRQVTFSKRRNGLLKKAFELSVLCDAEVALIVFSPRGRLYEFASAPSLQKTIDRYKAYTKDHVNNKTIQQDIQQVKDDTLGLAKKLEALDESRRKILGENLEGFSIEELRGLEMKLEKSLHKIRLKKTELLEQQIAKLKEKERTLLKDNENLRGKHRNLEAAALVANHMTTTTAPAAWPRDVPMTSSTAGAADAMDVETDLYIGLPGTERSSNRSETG

B1: OsMADS26 (protein, UniProt Q0J8G8 1-222)
chain: MARGKVQLRRIENPVHRQVTFCKRRAGLLKKARELSILCEADIGIIIFSAHGKLYDLATTGTMEELIERYKSASGEQANACGDQRMDPKQEAMVLKQEINLLQKGLRYIYGNRANEHMTVEELNALERYLEIWMYNIRSAKMQIMIQEIQALKSKEGMLKAANEILQEKIVEQNGLIDVGMMVADQQNGHFSTVPLLEEITNPLTILSGYSTCRGSEMGYSF
B2: OsMADS33 (protein, UniProt Q2QW55 1-202)
chain: MVRGKVQMRRIENPVHRQVTFCKRRGGLLKKARELSVLCDADVGVIIFSSQGKLHELATNGNMHNLVERYQSNVAGGQMEPGALQRQQVAEQGIFLLREEIDLLQRGLRSTYGGGAGEMTLDKLHALEKGLELWIYQIRTTKMQMMQQEIQFLRNKEGILKEANEMLQEKVKEQQKLYMSLLDLHSQQPTQPMTYGNRFFSI
B3: OsMADS31 (protein, UniProt Q84NC2 1-178)
chain: MGRGRVELKKIENPTNRQVTFSKRRMGLLKKANELAILCDAQIGVIVFSGTGKMYEYSSPPWRIANIFDRYLKAPSTRFEEMDVQQRIIQEMTRMKDENNRLRIIMRQYMGDDLASLTLQDVSNLEQQIEFSLYKVRLRKQQLLDQQLLEMHSRVCNKRIYRFSILPYLIHYIEIIKF
B4: M29^∆MADS (domain or fragment, UniProt Q6H711)
chain: MYQTVTNTHFEEINHDQQIFVEMTRMRNEMEKLDGGIRRFTGDDLSNLTLADINDLEQQLEFSVTKVRARKHQLLNQQLDNLRRKEHILEDQNSFLCRMINENHHQAAVGGGDVKAMVEMAPVLSMLTAAPAYYGEESSSTALQLTPPLHAVDAAAAAGFRLQPTQPNLQDPGCSSSSFHAAAAGHGLQLW

Experiments:
OsMADS29 (rice) [1] = target: OsMADS29 (rice) (UniProt Q6H711); assay: split reporter; BiFC: YFPn and YFPc fusions co-transfected into onion epidermal (peel) cells by particle bombardment; 10-12 h at 28 °C in the dark; YFP fluorescence microscopy
M29^NLS-MUT (rice) = M29^NLS-MUT (rice) (UniProt Q6H711); assay: as above
M29^∆KC (rice) = M29^∆KC (rice) (UniProt Q6H711); assay: as above
OsMADS29 (rice) [2] = target: OsMADS29 (rice) (UniProt Q6H711); assay: two-hybrid; M29 bait (pDEST-GBKT7, Gal4 DNA-binding domain) in Y187 mated with preys (pDEST-GADT7, Gal4 activation domain) in Y2H-Gold; growth on quadruple drop out (SD/-His-Leu-Ade-Trp) and blue colour on QDO + X-α-Gal; 3-8 days at 30 °C
OsMADS29 (rice) [3] = target: OsMADS29 (rice) (UniProt Q6H711); assay: two-hybrid; quantitative α-galactosidase assay of the same bait-prey yeast in liquid SD/-Leu-Trp culture; PNP-α-Gal substrate, sodium acetate pH 4.5, 1 h at 30 °C, OD 410 nm
OsMADS29 (rice) [4] = target: OsMADS29 (rice) (UniProt Q6H711); assay: split reporter; BiFC: YFPn and YFPc fusions co-transfected into onion epidermal (peel) cells by particle bombardment; 10-12 h at 28 °C in the dark; YFP fluorescence microscopy; remark: listed apart in the source
M29^∆MADS (rice) = M29^∆MADS (rice) (UniProt Q6H711); assay: as above

Molecule	binding (OsMADS29 (rice) [1])	binding (OsMADS29 (rice) [2])	binding (OsMADS29 (rice) [3])	also measured
M29^LZ-MUT (from UniProt Q6H711 1-260)	binds			
M29^NLS-MUT (from UniProt Q6H711 1-260)	binds			binding (M29^NLS-MUT (rice)): binds
M29^∆KC (from UniProt Q6H711 1-78) (domain or fragment)	no binding			binding (M29^∆KC (rice)): no binding
OsMADS1 (from UniProt Q10PZ9 1-257)	binds	binds	binds	
OsMADS3 (from UniProt Q40704 1-236)	binds	binds	binds	
OsMADS5 (from UniProt Q0DEB8 1-225)	binds	binds	binds	
OsMADS6 (from UniProt Q6EU39 1-250)	binds	binds	binds	
OsMADS7 (from UniProt Q0J466 1-249)	binds			
OsMADS8 (from UniProt Q9SAR1 1-248)	binds			
OsMADS14 (from UniProt Q10CQ1 1-246)	binds			
OsMADS17 (from UniProt Q7XUN2 1-249)	binds	binds weakly		
OsMADS18 (from UniProt Q0D4T4 1-249)	binds		binds	
OsMADS22 (from UniProt Q9XJ66 1-228)	binds	binds	binds	
OsMADS25 (from UniProt Q84NC5 1-227)	binds	binds weakly		
OsMADS29 (from UniProt Q6H711 1-260)	binds	binds	binds	
OsMADS34 (from UniProt Q6Q9H6 1-239)	binds			
OsMADS55 (from UniProt Q69TG5 1-245)	binds	binds	binds	
OsMADS56 (from UniProt P0C5B2 1-233)	binds	binds	binds	
B1		binds	binds	binding (OsMADS29 (rice) [4]): binds
B2		binds	binds	binding (OsMADS29 (rice) [4]): binds
B3			binds	binding (OsMADS29 (rice) [4]): binds
B4				binding (OsMADS29 (rice) [4]): binds; binding (M29^∆MADS (rice)): binds
